# Measurements as given in the supplement of paper PMC3334620.
# Over roughly 33,000 sequences, “E-score (-0.5 to 0.5)” has its median near -0.053; the highest 2% begin near 0.37. The list shows a part of the results.
# Molecular target: Hap1 (UniProt P0CE41)
# Assay: PBM E-score (8-mer binding enrichment) (E-score (-0.5 to 0.5)); higher = stronger / more preferred TF binding; most listed sequences are background and not binding sites
# Details: protein concentration: 200 nM; construct: GST-DNA-binding domain
# Outline: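 Full-length yeast transcription factors or their DNA-binding domains, GST-tagged and expressed with PURExpress, were applied at about 100-200 nM to universal all-10-mer Agilent arrays. These arrays had been made double-stranded by primer extension on fresh or once-stripped slides. Detection used fluorescent anti-GST, normalisation used masliner, and E-scores for ungapped eight-base words pooled with reverse complements came from the Universal PBM Analysis Suite.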
# Sequence of UniProt P0CE41 (P0CE41 whole entry): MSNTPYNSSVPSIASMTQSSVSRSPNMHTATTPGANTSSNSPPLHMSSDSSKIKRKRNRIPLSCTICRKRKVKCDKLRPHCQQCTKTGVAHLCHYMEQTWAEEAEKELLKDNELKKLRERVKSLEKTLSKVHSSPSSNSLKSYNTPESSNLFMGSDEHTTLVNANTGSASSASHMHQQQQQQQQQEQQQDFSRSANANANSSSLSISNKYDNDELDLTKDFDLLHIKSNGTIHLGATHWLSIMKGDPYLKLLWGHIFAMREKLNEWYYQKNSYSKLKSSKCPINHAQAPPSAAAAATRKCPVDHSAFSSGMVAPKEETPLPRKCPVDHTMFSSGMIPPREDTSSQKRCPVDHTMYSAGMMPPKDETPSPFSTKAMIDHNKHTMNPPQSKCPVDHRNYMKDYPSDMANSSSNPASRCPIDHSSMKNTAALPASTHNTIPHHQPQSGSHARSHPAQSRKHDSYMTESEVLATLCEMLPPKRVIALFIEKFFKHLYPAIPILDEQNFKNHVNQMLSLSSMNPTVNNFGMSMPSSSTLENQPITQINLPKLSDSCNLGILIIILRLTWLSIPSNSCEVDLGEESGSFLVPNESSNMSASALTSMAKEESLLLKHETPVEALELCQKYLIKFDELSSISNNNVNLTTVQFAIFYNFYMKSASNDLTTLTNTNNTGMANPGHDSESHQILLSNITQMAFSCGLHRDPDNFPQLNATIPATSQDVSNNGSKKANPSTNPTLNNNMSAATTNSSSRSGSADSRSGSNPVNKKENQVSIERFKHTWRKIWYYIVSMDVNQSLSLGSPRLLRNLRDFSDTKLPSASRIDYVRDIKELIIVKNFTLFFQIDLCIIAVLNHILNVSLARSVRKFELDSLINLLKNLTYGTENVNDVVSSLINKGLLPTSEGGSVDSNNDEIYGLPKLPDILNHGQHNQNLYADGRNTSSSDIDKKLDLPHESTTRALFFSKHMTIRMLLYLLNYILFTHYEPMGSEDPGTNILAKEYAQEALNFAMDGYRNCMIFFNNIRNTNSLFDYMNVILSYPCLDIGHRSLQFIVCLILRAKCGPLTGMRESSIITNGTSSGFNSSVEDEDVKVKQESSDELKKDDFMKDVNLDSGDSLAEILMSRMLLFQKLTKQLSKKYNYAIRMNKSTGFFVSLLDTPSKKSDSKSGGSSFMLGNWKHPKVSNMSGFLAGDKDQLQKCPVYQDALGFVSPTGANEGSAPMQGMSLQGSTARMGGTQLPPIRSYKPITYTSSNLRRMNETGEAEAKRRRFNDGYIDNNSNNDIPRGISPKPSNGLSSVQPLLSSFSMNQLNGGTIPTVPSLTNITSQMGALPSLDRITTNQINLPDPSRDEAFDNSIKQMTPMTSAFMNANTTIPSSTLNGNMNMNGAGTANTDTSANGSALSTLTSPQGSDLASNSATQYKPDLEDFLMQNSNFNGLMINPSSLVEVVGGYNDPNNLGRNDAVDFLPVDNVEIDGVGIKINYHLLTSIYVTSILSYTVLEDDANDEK
row,Sequence,PBM E-score
1,GGTCGGAA,0.265
2,AGGACGTA,0.00968
3,ATGCACAG,-0.217
4,AAAACAGG,-0.36
5,CAGTCAAC,-0.21
6,CAGTTTTC,-0.0267
7,AGCCTGAG,-0.365
8,AATGTCAA,-0.127
9,AGACAACC,0.0489
10,CATGTGGA,-0.207
11,ATCACACC,0.169
12,GGGCTCAC,-0.0345
13,ACCAGGTC,0.0272
14,AGACGAAC,-0.273
15,CTCTACAC,-0.029
16,ATCCGGGA,0.239
17,GCTCTGAA,-0.135
18,ATAGTCAC,-0.18
19,AGTGTCCG,0.258
20,AGGATATC,0.155
21,AAGGTCCC,-0.253
22,ACGGTAAC,0.245
23,ACGAATCT,0.0898
24,GCCACAAA,0.0371
25,CAGACCGA,0.278

row,Sequence,PBM E-score
1,CTTGATCA,-0.0583
2,CGATTCAA,-0.0364
3,CCTATGTA,-0.201
4,AGCAGGTA,-0.123
5,GTATAGAC,-0.156
6,CAAACCGG,0.236
7,CGCAAACG,-0.00497
8,ACCAAGGC,-0.152
9,CGGCGCTA,0.356
10,GCAGATGA,-0.18
11,ATTAAATA,0.131
12,ATACAGGC,-0.0909
13,CCTGCAAC,-0.289
14,ATTATCAG,-0.106
15,AGATGTAC,-0.243
16,AGGGTAAC,-0.137
17,CGATGAGA,0.056
18,GCTTGGAA,-0.193
19,AGGTAATG,0.104
20,AATTTAAA,-0.0116
21,CTCGTGAC,-0.151
22,ACGACCAA,-0.162
23,CACAGAGG,-0.221
24,GGACCTAC,0.26
25,ACACTTCG,-0.158

row,Sequence,PBM E-score
1,CCTGGCCG,0.0658
2,AAATTTCT,0.0196
3,CCTATGCA,-0.262
4,GCTAGGAA,-0.258
5,CCTACGCG,0.0464
6,AGTGCTCG,-0.122
7,CCAACAGA,-0.15
8,CACCTACC,-0.171
9,CAGAAAAA,-0.0996
10,CGGGTTTA,0.474
11,AGCGGGGA,0.0437
12,ACACCGCT,-0.00445
13,CATTCTAG,-0.409
14,ATCTCGAG,-0.0933
15,GGGCTAAA,0.131
16,ACACGTAC,-0.229
17,CAACGGTC,0.209
18,AGAGGCGA,-0.132
19,AGAGGCAA,-0.0652
20,GAGCAATC,-0.00019
21,GGAGGCCA,0.0209
22,GCCCCATA,-0.00491
23,ACCTTCTA,-0.239
24,CTTAGAGC,0.00024
25,AGCTTCCA,-0.074

row,Sequence,PBM E-score
1,ACAGAGGT,-0.234
2,CGTTGAAC,0.00776
3,GGGTGGTA,0.0754
4,AGCGATAA,0.284
5,ACAGGCCT,-0.198
6,CGTAACAC,-0.016
7,GCTTCCGA,0.229
8,CTCTGTAA,-0.284
9,ATATGGTG,-0.0575
10,GACCAGTA,0.00108
11,CCAACTTC,-0.127
12,ACCCCCAG,-0.25
13,GTGAATTA,-0.0515
14,CGGGGTAA,0.302
15,CATTCGGA,0.321
16,CCATCCAA,-0.136
17,ACAATTTC,-0.0295
18,ATCTGCCG,0.318
19,CCACACGC,-0.0115
20,GACCACGC,-0.063
21,TCTCGCCA,-0.0825
22,ACCTGGTC,0.213
23,CGTGCTAC,-0.0707
24,CGTTGTTC,0.168
25,CAAGTAAA,0.0597

row,Sequence,PBM E-score
1,CTGGTAGA,-0.2
2,CAAACGAC,-0.123
3,AAAGCGTG,-0.117
4,AGGGCGAA,0.142
5,CCAGCCCA,-0.12
6,CCTGAGGC,-0.0848
7,GGGAAACA,0.112
8,CCGAACGA,0.313
9,AGCCCGCG,0.235
10,ATTTTTTA,0.145
11,AATGTATG,-0.129
12,GATCGCCA,-0.0197
13,TGTCGGAA,0.233
14,GACCGGAA,0.361
15,CATCCATG,-0.227
16,CGGAATAC,0.35
17,ACACTCTA,-0.138
18,ATCGTACA,-0.0583
19,AGGTCTCA,-0.00289
20,AGGAAGAG,-0.146
21,CATCCTAG,-0.216
22,ACCCGTCT,-0.0322
23,ACGGAGAG,0.284
24,TCCTCACA,-0.0176
25,TACTAAAA,-0.0154

row,Sequence,PBM E-score
1,GAGAGTGA,-0.147
2,AAATGTCA,-0.168
3,CACTCTTA,-0.217
4,GACACCTC,0.0163
5,GCGTGTCA,-0.0947
6,GCCCGGGC,0.434
7,ACTCCAGA,-0.174
8,CTTGAAAC,0.0301
9,CTTCGACA,-0.309
10,AGAACGAT,-0.199
11,ACTAGTAG,-0.149
12,ATGCGCAC,-0.141
13,TGAGTGCA,-0.175
14,AAGAAGGA,-0.21
15,AAGGATAT,0.0796
16,GAGTCAAC,-0.124
17,AATTAGGA,-0.0195
18,AACACCCG,0.309
19,AATTTTTA,0.0164
20,ACACCGCA,0.21
21,CCCGCAAG,-0.103
22,ATAAGTAC,-0.0179
23,ACAGAGGC,-0.186
24,CCAAGGCG,-0.103
25,ATTAAGGG,-0.101

row,Sequence,PBM E-score
1,GACACCGC,0.128
2,CCGCAGAC,0.121
3,CGTTTTTC,-0.0472
4,ACTAAATC,0.155
5,CAGTATAG,-0.0365
6,AAAGATGA,-0.143
7,CACACGGC,0.153
8,CAATCACC,0.245
9,AAGATGAC,-0.22
10,AGATTGAG,-0.135
11,GGAAGTGA,0.112
12,CGCGCGCC,0.201
13,CAAAACGC,0.0814
14,CGCGGACA,0.335
15,CGTGTTTA,0.038
16,CGCTTTAC,0.0374
17,GCCAAGGA,-0.207
18,AACGGGGA,0.169
19,GCCTGCGA,-0.234
20,GCAATTGA,0.0449
21,TCATCCAA,-0.0815
22,AATGAACT,0.0548
